Data published in PubChem BioAssay (NCATS).
This list was built around the results that the source calls inconclusive (neither active nor inactive); the mix of calls is not that of the screen. The source made the active and inactive calls. The call rests on the fitted dose curve; in most records, active means well fitted curve in either direction with a large enough effect (not every such curve was filed as active); inconclusive means small, poorly fitted or top-dose-only effect, or another doubt; inactive means flat fitted curve, though single readings scatter.

Assay: NFAT Signaling Pathway (AID 444);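 further: carbachol stimulus at about its EC50 of 1 µM final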
Details: Jurkat NFAT-bla M1, carbachol, beta-lactamase ratio, 5 h; at 17.2 µM (top of the series) unless noted
In short: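 Jurkat cells with NFAT-driven β-lactamase reporter and co-expressed M1 receptor, stimulated with carbachol (final 1 uM, ~EC50), compound titration, 5 h at 37 °C. CCF4 loaded 1 h at RT; 460/530 nm ratio gave %activity and AC50.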
On the % scale 0 is the no-effect control and ±100 the full control effect.

Activity change, negative = inhibition, inactive:
Cc1cccc(CNc2ncnc3ccc(-c4cccc(C#N)c4)cc23)c1 -25.8% [at 7.69 µM], Cn1c(=O)cc(NCc2ccccc2)[nH]c1=O -6.77%, COc1c2c(nc3ccccc13)O[C@@H]([C@@](C)(O)CO)C2 -2.6% [at 38 µM], CCCCCCCC(=O)OCC(=O)[C@@]1(O)CC[C@H]2[C@@H]3CCC4=CC(=O)CC[C@]4(C)[C@H]3[C@@H](O)C[C@@]21C -28.6%, O=C(Nc1ccc(Nc2ccc3c(c2)C(=O)c2ccccc2C3=O)c2c1C(=O)c1ccccc1C2=O)c1ccccc1 18.6% [at 7.69 µM], O=c1ccnc(SCc2ccc(Cl)cc2)[nH]1 2.66% [at 7.69 µM], O=[N+]([O-])c1ccc2c(c1)S(=O)c1ccccc1-2 (stereo not drawn) 10.5% [at 7.69 µM], Cc1ccc(C2/C(=C(\O)c3ccc4c(c3)OCCO4)C(=O)C(=O)N2CCCN(C)C)o1 (stereo not drawn) -21.4%, Nc1nc2c(nc(Br)n2[C@@H]2O[C@H]3COP(=O)(O)O[C@@H]3[C@H]2O)c(=O)[nH]1 -0.742% [at 38 µM], N[C@@H](Cc1ccnnc1)C(=O)O 13.5% [at 7.69 µM], CC(=O)CC(=O)[C@@]1(O)CC[C@@H]2[C@@H]3C=C(C)C4=CC(=O)CC[C@@H]4[C@H]3CC[C@]21C -13.4%

Activity change, negative = inhibition, inconclusive:
COc1ccccc1-c1nnc2n1N=C(c1ccc(O)c(O)c1)CS2 -42.9% [inhibitor], COc1cccc(NC(=O)C2CC(=O)n3cnnc3S2)c1 (stereo not drawn) -91% [inhibitor], CCN(CC)CC[n+]1ccc2c(C)c3[nH]c4ccc(O)cc4c3c(C)c2c1 -51.3% [inhibitor] [at 7.69 µM], O=C1C[C@H]2OCC=C3CN4CC[C@@]5(C(=O)O)[C@H](N1)[C@H]2[C@H]3C[C@H]45 20.3% [activator] [at 7.69 µM], Cc1ccc(Cn2ncc3c(N4CCN(Cc5ccc(Cl)cc5)CC4)ncnc32)cc1 -47.9% [inhibitor], CCN1CC=C2C(C#N)=C(N)C(C#N)(C#N)[C@H](c3cccc(OC)c3OC)[C@H]2C1 136% [activator], CC1(C)Cc2c(c(N3CCOCC3)nc3sc(C#N)c(N)c23)CS1 31% [activator], COCCNC(=O)c1c(N)n(CCC2=CCCCC2)c2nc3ccccc3nc12 44.4% [activator], CCOC(=O)c1c2c(c(=S)n(-c3ccccc3)c1N)CCC2 -78.5% [inhibitor], NS(=O)(=O)c1ccc(N=Nc2nc3[nH]cnc(=S)c3[nH]2)cc1 -26.4% [inhibitor] [at 7.69 µM], CCCc1cc(-c2nc(N)ncc2-c2ccc3c(c2)OCCCO3)c(O)cc1OC -121% [inhibitor], Cc1c([C@H]2[C@@H](CC#N)C2(C)C)c2ccccc2n1C -51.8% [inhibitor], CCOC(=O)O[C@]1(C(=O)COC(=O)CC)CC[C@@H]2[C@@H]3CCC4=CC(=O)C=C[C@@]4(C)[C@H]3[C@H](O)C[C@]21C -44.2% [inhibitor], N#Cc1c(N)n(CCOC(=O)c2ccc(Cl)cc2)c2nc3ccccc3nc12 130% [activator], CN1CCc2nc(SCC(=O)Nc3ccc(Cl)cc3)c(C#N)cc2C1 -31.6% [inhibitor], N#CC1=C(N)C(C#N)(C#N)[C@H](c2ccncc2)[C@H]2CN(C(=O)OCc3ccccc3)CC=C12 -95.7% [inhibitor], O[C@@H](c1cc(-c2ccc(Cl)cc2)nc2ccccc12)[C@@H]1CCCCN1 52.2% [activator] [at 7.69 µM]

Assay: Stat Signaling Pathway (AID 446);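 further: ME-180 cervical cancer cells given 40 pM IL-6 alongside compound; SIE-controlled beta-lactamase reporter measured as 460/530 nm FRET emission ratio; top concentration of the series differs between compounds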
Details: ME-180 SIE beta-lactamase reporter, IL-6 stimulated, 5 h; at 7.69 µM (top of the series) unless noted
In short: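 ME-180 cells carrying a SIE-driven beta-lactamase reporter are stimulated with 40 pM IL-6 for 5 h at 37C in the presence of compound. The 460/530 nm FRET substrate ratio is read after 2.5 h at RT. Data are normalised to 300 pM IL-6 and to 125 nM JAK inhibitor controls.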

activity, negative = inhibition, inconclusive:
CCSc1nnc(NC(=O)NC(CC)(C(F)(F)F)C(F)(F)F)s1 -49.5% [inhibitor] [at 17.2 µM], CCOC(=O)NC(Nc1sc2c(c1C(=O)OC)CCN(C)C2)(C(F)(F)F)C(F)(F)F 8.43% [activator] [at 17.2 µM], Cn1c(=O)cc(NCc2ccccc2)[nH]c1=O 2.38% [activator] [at 17.2 µM], CCN1CC=C2C(C#N)=C(N)C(C#N)(C#N)[C@H](c3cccc(OC)c3OC)[C@H]2C1 45% [activator] [at 17.2 µM], COCCNC(=O)c1c(N)n(CCC2=CCCCC2)c2nc3ccccc3nc12 61% [activator] [at 17.2 µM], CCCc1cc(-c2nc(N)ncc2-c2ccc3c(c2)OCCCO3)c(O)cc1OC -35.9% [inhibitor] [at 17.2 µM], COc1c2c(nc3ccccc13)O[C@@H]([C@@](C)(O)CO)C2 1.77% [activator] [at 38 µM], Cc1c([C@H]2[C@@H](CC#N)C2(C)C)c2ccccc2n1C 30.9% [activator] [at 17.2 µM], N#Cc1c(N)n(CCOC(=O)c2ccc(Cl)cc2)c2nc3ccccc3nc12 38.4% [activator] [at 17.2 µM], CN1CCc2nc(SCC(=O)Nc3ccc(Cl)cc3)c(C#N)cc2C1 -21.7% [inhibitor] [at 17.2 µM], N#CC1=C(N)C(C#N)(C#N)[C@H](c2ccncc2)[C@H]2CN(C(=O)OCc3ccccc3)CC=C12 -72.8% [inhibitor] [at 17.2 µM]

activity, negative = inhibition, inactive:
COc1cccc(NC(=O)C2CC(=O)n3cnnc3S2)c1 (stereo not drawn) -7.33% [at 17.2 µM], O=C1C[C@H]2OCC=C3CN4CC[C@@]5(C(=O)O)[C@H](N1)[C@H]2[C@H]3C[C@H]45 -5.3%, CCOC(=O)c1c2c(c(=S)n(-c3ccccc3)c1N)CCC2 -15.9% [at 17.2 µM], Cc1ccc(C2/C(=C(\O)c3ccc4c(c3)OCCO4)C(=O)C(=O)N2CCCN(C)C)o1 (stereo not drawn) -1.3% [at 17.2 µM]
